Experimental data as given in PubChem BioAssay AID485294 (National Center for Advancing Translational Sciences (NCATS), 2010).
Where “and” joins values, the source holds several entries; their conditions need not be identical. Equal entries are not always repeated. About 150 (0.041%) of roughly 370,000 compounds were called active. The inconclusive results got no clear call from the source; some entries with a clear call stand among them for comparison. Calls come from the whole dose curve; as a rule, active = well fitted inhibition curve with a large enough effect; inconclusive = small, poorly fitted or top-dose-only effect; inactive = flat fitted curve, though single readings scatter. Where the call is inconclusive, the potency comes from a doubtful curve fit.

What follows are molecules tested against Beta-lactamase (Escherichia coli (strain K12)) (UniProt P00811) (assay: qHTS Inhibitors of AmpC Beta-Lactamase (assay with detergent)). Details: AmpC hydrolysis of nitrocefin, absorbance 480 nm, 0.01% Triton; series mostly up to 114 µM.
Outline: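 AmpC (5.3 nM in the dispensed reagent) in 20 mM phosphate pH 7.0 with 0.01% (detergent screen) or 0.0001% Triton X-100 was preincubated with compounds for 15 min at room temperature. Nitrocefin was then added from an 800 uM solution, and hydrolysis was followed at 480 nm.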
Note: nearly all actives have a fitted effect of over 25% in size.
Potency is the fitted concentration of half-maximal effect; tags give direction and shape of the fitted curve.

Sequence of UniProt P00811 (P00811 whole entry, looked up): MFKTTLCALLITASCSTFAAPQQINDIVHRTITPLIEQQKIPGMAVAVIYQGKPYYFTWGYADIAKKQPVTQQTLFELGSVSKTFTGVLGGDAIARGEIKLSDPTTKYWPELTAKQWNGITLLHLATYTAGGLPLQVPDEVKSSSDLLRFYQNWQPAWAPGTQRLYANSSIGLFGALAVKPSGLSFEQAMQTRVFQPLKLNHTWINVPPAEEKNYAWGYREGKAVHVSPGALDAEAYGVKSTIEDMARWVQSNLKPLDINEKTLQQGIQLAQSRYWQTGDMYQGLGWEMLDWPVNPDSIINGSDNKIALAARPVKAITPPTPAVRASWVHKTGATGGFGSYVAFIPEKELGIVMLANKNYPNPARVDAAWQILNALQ

| Compound | Potency |
| --- | --- |
| O=C(C(Cc1ccccc1)n1cccc1)N1CCc2ccccc21 (centres undefined) | inconclusive: 7.08 µM [inhibitor, full curve, poor fit] |
| NC(=O)c1ccc(NC(=O)C2CCN(S(=O)(=O)Cc3ccccc3)CC2)cc1 | inactive |
| Cc1cccc(C2Nc3ccccc3C(=O)N2CCc2ccccc2)n1 (centres undefined) | inconclusive: 1 µM [inhibitor, full curve, poor fit] |
| Cc1ccc(-n2c(SCC(N)=O)nnc2-c2ccccn2)cc1 | inconclusive: 1.78 µM [inhibitor, full curve, poor fit] |
| N/C(Cc1ccc([N+](=O)[O-])cc1)=N\OC(=O)c1ccccc1F | inactive |
| CN(CCc1cnn(C)c1)C(=O)C1CCC(=O)N(CC2CCCCC2)C1 (centres undefined) | inconclusive: 2.51 µM [inhibitor, full curve, poor fit] |
| O=C(Nc1ccc2nccnc2c1)c1cnccn1 | inconclusive: 17.8 µM [inhibitor, single point] |
| CCN1CCN(c2nc3ccccc3nc2C(C#N)C(=O)OC2CCCCC2)CC1 (centres undefined) | inconclusive: 0.631 µM [inhibitor, full curve, poor fit] |
| C(=N\c1nccs1)/Nc1nccs1 | inconclusive: 63.1 µM [inhibitor, partial curve, poor fit] |
| CN(C)/C=C1/N=C(c2ccccc2)OC1=O | inactive |
| CCN(Cc1ccccc1)C(=O)C1CCN(C(=O)Nc2ccccc2)CC1 | inactive |
| O=[N+]([O-])c1cccc(/C=N/Nc2nc(N3CCCCC3)nc(N3CCCCC3)n2)c1 | inconclusive: 89.1 µM [inhibitor, single point] |
| Clc1ccc(C(Cn2ccnc2)OCc2csc3c(Cl)cccc23)c(Cl)c1 (centres undefined) | inactive |
| CC1CCCCN1S(=O)(=O)CCNC(=O)c1ccccc1 (centres undefined) | inconclusive: 2.51 µM [inhibitor, full curve, poor fit] |
| O=c1cc(CCl)nc2sc3ccccc3n12 | inactive |
| Cc1ccc(CNC(=O)CSc2n[nH]c(N)n2)cc1 | inconclusive: 79.4 µM [inhibitor, partial curve] |
| O=C(/C=C/c1ccccc1)OCCN=C1NS(=O)(=O)c2ccccc21 | inconclusive: 8.91 µM [inhibitor, full curve, poor fit] |
| CC(=O)N(C1=C(N)C(=O)c2ccccc2C1=O)C(C)C | inactive |
| C=CCS(=O)(=O)N1CCCC(Cc2ccccc2C)(C(=O)OCC)C1 (centres undefined) | inconclusive: 0.631 µM [inhibitor, full curve, poor fit] |
| COc1ccc(Cc2noc(-c3ccccc3)n2)cc1OC | inconclusive: 25.1 µM [inhibitor, full curve, poor fit] |
| Cc1ccc(Cl)cc1N1CCN(Cc2nnnn2C2CCCCC2)CC1 | inconclusive: 0.631 µM [inhibitor, full curve, poor fit] |
| COc1ccc(-n2nc(C(=O)N(C)c3cc(Cl)ccc3OC)c3c4ccccc4n(C)c3c2=O)cc1 | inactive |
| CC(=O)OC1(c2ccccc2)CCN(C)C(C)C1C (centres undefined) | inconclusive: 28.2 µM [inhibitor, full curve, poor fit] |

| Compound | Potency |
| --- | --- |
| CNC(C)C#Cc1c(-c2cc(OC)c(OC)c(OC)c2)noc1C (centres undefined) | inconclusive: 56.2 µM [inhibitor, partial curve, poor fit] |
| CCN(CC)CCNC(=O)COc1ccc(OC)cc1 | inconclusive: 89.1 µM [inhibitor, single point] and inconclusive: 3.98 µM [inhibitor, full curve] |
| O=C(NCc1ccco1)c1ccc2c(c1)N(Cc1ccccc1)C(=O)CS2=O (centres undefined) | inconclusive: 2.24 µM [inhibitor, partial curve, poor fit] |
| CCOC(=O)N1CCC(N(CCN(C)C)C(=S)Nc2ccccc2OC)CC1 | inconclusive: 4.47 µM [inhibitor, full curve, poor fit] |
| Cc1ccc2sc(NC(=O)C3CC3)nc2c1C | inactive |
| Cc1ccsc1C(=O)NNC(=O)C1CC=CCC1C(=O)O (centres undefined) | inconclusive: 44.7 µM [inhibitor, partial curve] |
| CCOC(=O)C1CCN(C(=O)CSc2ccccc2Cl)CC1 | inactive |
| Cc1ccc2nc(NC(=O)C3CCCN(S(=O)(=O)c4cccnc4)C3)sc2c1 (centres undefined) | inconclusive: 50.1 µM [inhibitor, partial curve, poor fit] |
| COC1=CC2(O)CCCC2=CC1=O (centres undefined) | inactive |
| Cc1occc1C(=O)NNC(=O)COc1ccc(Br)cc1Br | inconclusive: 112 µM [inhibitor, partial curve, poor fit] |
| O=C(O)COc1ccccc1C1C2C(=O)N(c3ccc(F)cc3)C(=O)C2ON1c1ccccc1 (centres undefined) | inconclusive: 1.12 µM [inhibitor, full curve, poor fit] |
| Cc1ccccc1CSCc1nc2ccccc2[nH]1 | inconclusive: 10 µM [inhibitor, partial curve, poor fit] |
| Cc1cccc2c1N(C(=O)CN1C(=O)c3ccccc3C1=O)C(C)(C)c1ssc(=S)c1-2 | inconclusive: 2.51 µM [inhibitor, full curve, poor fit] |
| O=C(CCNC(=O)c1ccco1)Nc1ccccc1 | inconclusive: 100 µM [inhibitor, single point] |
| NC(=O)c1sc2nc3c(c(-c4ccco4)c2c1N)CCC3 | inconclusive: 56.2 µM [inhibitor, partial curve] |
| CCc1ccc(NC(=O)COc2ccc(Br)cn2)cc1 | inactive |
| COc1ccc(N2CCN(C(C)C(=O)N3CC(C)OC(C)C3)CC2)cc1 (centres undefined) | inconclusive: 0.562 µM [inhibitor, full curve, poor fit] |
| CSc1nc2[nH]c3c(c2c2ncnn12)CCCC3 | inconclusive: 56.2 µM [inhibitor, partial curve] |
| CN(Cc1ccccc1)c1nc(CN2CCOCC2)nc2scc(-c3ccccc3)c12 | inactive |
| CC(=O)c1ccc(NC(=O)CCC(=O)N2CC(C)Oc3ccc(C)cc32)cc1 (centres undefined) | inactive |
| CCCCn1c(CCC(=O)O)ccc1-c1cccs1 | inconclusive: 5.01 µM [inhibitor, full curve, poor fit] |
| CCCCN(C)CCN1C(=O)C2C(C(=O)Nc3ccc(OC)cc3)C3C=CC2(O3)C1C(=O)NC1CCCCC1 (centres undefined) | inactive |
| C=CCOC(=O)C1=C(C)NC(=O)NC1c1cn(-c2ccccc2)nc1-c1cccs1 (centres undefined) | inconclusive: 3.55 µM [inhibitor, full curve] |

| Compound | Potency |
| --- | --- |
| NC(=O)CCCn1c(C(=O)c2cc(Cl)c(N)c(Cl)c2)c2ccc(C(F)(F)F)cc2[n+]1[O-] | inconclusive: 5.62 µM [inhibitor, full curve] |
| CCOc1ccc(C(=O)N[C@H](C(=O)O)C(C)C)cc1 | inconclusive: 31.6 µM [inhibitor, full curve, poor fit] |
| COc1ccc(N2CC(C(=O)Nc3ccc4c(c3)OCCO4)CC2=O)cc1 (centres undefined) | inconclusive: 11.2 µM [inhibitor, full curve] |
| [N-]=[N+]=NC[C@H](Cc1ccccc1)N1CC[C@@H](NC(=O)OCc2ccccc2)CCC1=O | inconclusive: 22.4 µM [inhibitor, partial curve] |
| COc1ccc(S(=O)(=O)N2CCSC2c2ccccc2)cc1 (centres undefined) | inconclusive: 63.1 µM [inhibitor, partial curve, poor fit] |
| O=C(NCCS(=O)(=O)NCCc1ccccc1)c1ccc2c(c1)OCO2 | inconclusive: 5.01 µM [inhibitor, full curve, poor fit] |
| Cc1ccc(CN=c2c([N+](=O)[O-])nn(-c3cccc(Cl)c3)n2O)cc1 | inconclusive: 100 µM [inhibitor, single point] |
| COc1ccc(/C=C2\N=C(SC)N(c3ccccc3OC)C2=O)cc1 | inactive |
| O=S(=O)(NCc1ccccn1)c1cccc2nsnc12 | inconclusive: 17.8 µM [inhibitor, full curve, poor fit] |
| COc1cc(C(C)=O)ccc1OCCCOc1cccc2cccnc12 | inactive |
| COc1ccc(C)cc1NC(=O)C1CCN(S(=O)(=O)c2ccc3[nH]c(=O)oc3c2)CC1 | inconclusive: 31.6 µM [inhibitor, partial curve] |
| CCOC(=O)Nc1cc2c(cc1C(C)=O)OCO2 | inconclusive: 2.82 µM [inhibitor, full curve] |
| CSc1ccc(-c2sc(Nc3cccc4ccccc34)n[n+]2-c2ccccc2)cc1 | inconclusive: 89.1 µM [inhibitor, partial curve, poor fit] |
| COc1ccc2nc(Nc3nc(CSc4nc5ccccc5[nH]4)cc(=O)[nH]3)nc(C)c2c1 | inactive |
| CN(C)/C=N/c1cc(=O)n(Cc2ccccc2)c(=O)n1C | inconclusive: 112 µM [inhibitor, partial curve, poor fit] |
| CCOC(=O)Cc1csc(NC(=O)COc2ccc(N(C)S(=O)(=O)c3cccs3)cc2)n1 | inactive |
| CC1CCC(NC(=O)c2ccc3c(c2)OCO3)CC1 (centres undefined) | inactive |
| COc1cc2c(=O)n(Cc3ccccc3Cl)c(=O)n(CC(=O)Nc3ccc(C)c(C)c3)c2cc1OC | inactive |
| CCOc1ccc(C(=O)OCC(=O)N2CCCC2)cc1 | inactive |
| CC1CC(C)C[N+](=C2C=C(N3CCCC3)CC(C)(C)C2)C1 (centres undefined) | inactive |
| COc1ccc(N=C2SC(C(=O)O)CC(=O)N2C)cc1 (centres undefined) | inconclusive: 39.8 µM [inhibitor, partial curve, poor fit] |
| CCOc1ccccc1NC=C1C(=O)OC2(CCCCC2)OC1=O | inconclusive: 1 µM [inhibitor, full curve] |
| O=C(CSc1nc2ccc(Nc3nc(N4CCOCC4)nc(N4CCOCC4)n3)cc2s1)Nc1ccccc1F | inactive |
